Measured values reported in the supplement of paper PMC10369915.
This is one part of the list. Rule as the data show it: active = 3.2 or more and inactive = the rest. Most of these values are background signal.

Experiments:
Experiment in all cases: enrichment score (SH2-bound / input frequency) (ratio); bacterial display of known human phosphotyrosine sites (pTyr-Var adds point mutants) read by sequencing; higher = stronger binding; tyrosines were phosphorylated by kinases first
Conditions in all cases: peptide library: Human pTyr
SHP2 C-SH2 domain E139D = biological target: SHP2 C-SH2 domain E139D
[1] = biological target: SHP2 C-SH2 domain wild-type
SHP2 N-SH2 domain L43F = biological target: SHP2 N-SH2 domain L43F
SHP2 N-SH2 domain T42A = biological target: SHP2 N-SH2 domain T42A
SHP2 N-SH2 domain T52S = biological target: SHP2 N-SH2 domain T52S
[2] = biological target: SHP2 N-SH2 domain wild-type

Measured: enrichment score
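Also: displayed peptides selected on beads carrying the immobilized SH2 domain, with library peptides lacking any tyrosine serving as negative controls.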

YKPDSPEYKAACKLW [PB1_HUMAN_134]
inactive: SHP2 C-SH2 domain E139D 1.3 | [1] 1.31 | SHP2 N-SH2 domain L43F 1.4 | SHP2 N-SH2 domain T42A 1.05 | SHP2 N-SH2 domain T52S 1.4 | [2] 1.41

GVRVRALYDYDGQEQ [PACN1_HUMAN_394]
inactive: SHP2 C-SH2 domain E139D 1.51 | [1] 1.42 | SHP2 N-SH2 domain L43F 1.25 | SHP2 N-SH2 domain T42A 1.07 | SHP2 N-SH2 domain T52S 1.28 | [2] 1.22

YYTTEFLYNLYSSEG [PFKAL_HUMAN_640]
inactive: SHP2 C-SH2 domain E139D 2 | [1] 2.09 | SHP2 N-SH2 domain L43F 1.87 | SHP2 N-SH2 domain T42A 1.79 | SHP2 N-SH2 domain T52S 2.17 | [2] 2.48

SDHMENVYGALMKAT [OSB11_HUMAN_62_YA]
inactive: SHP2 C-SH2 domain E139D 0.899 | [1] 0.782 | SHP2 N-SH2 domain L43F 0.937 | SHP2 N-SH2 domain T42A 0.85 | SHP2 N-SH2 domain T52S 1.3 | [2] 1.2

ENRFSCWYDADLSPA [PGAM4_HUMAN_26]
inactive: SHP2 C-SH2 domain E139D 1.42 | [1] 1.49 | SHP2 N-SH2 domain L43F 1.17 | SHP2 N-SH2 domain T42A 1.48 | SHP2 N-SH2 domain T52S 1.67 | [2] 1.72

ALLAKKGYQERDLEP [P2RX6_HUMAN_64]
inactive: SHP2 C-SH2 domain E139D 0.671 | [1] 0.739 | SHP2 N-SH2 domain L43F 0.86 | SHP2 N-SH2 domain T42A 0.588 | SHP2 N-SH2 domain T52S 0.811 | [2] 0.625

ENRFSGWYDADLSPA [PGAM1_HUMAN_26]
inactive: SHP2 C-SH2 domain E139D 0.612 | [1] 0.56 | SHP2 N-SH2 domain L43F 0.534 | SHP2 N-SH2 domain T42A 0.577 | SHP2 N-SH2 domain T52S 0.561 | [2] 0.604

IVGSKPLYVALAQRK [PABP4_HUMAN_364]
inactive: SHP2 C-SH2 domain E139D 0.885 | [1] 0.996 | SHP2 N-SH2 domain L43F 0.739 | SHP2 N-SH2 domain T42A 1.25 | SHP2 N-SH2 domain T52S 0.744 | [2] 0.908

SLSSENPYATIRDLP [PEAR1_HUMAN_925]
active: [1] 5.32
inactive: SHP2 C-SH2 domain E139D 1.98 | SHP2 N-SH2 domain L43F 0.664 | SHP2 N-SH2 domain T42A 0.717 | SHP2 N-SH2 domain T52S 0.592 | [2] 0.599

KMLCEQAYLVAPELE [PDK3_HUMAN_212_YA]
inactive: SHP2 C-SH2 domain E139D 1.19 | [1] 1.14 | SHP2 N-SH2 domain L43F 1.6 | SHP2 N-SH2 domain T42A 1.18 | SHP2 N-SH2 domain T52S 1.26 | [2] 1.14

MSDPGVSYRTREEIQ [ODPA_HUMAN_301]
inactive: SHP2 C-SH2 domain E139D 0.696 | [1] 0.641 | SHP2 N-SH2 domain L43F 0.726 | SHP2 N-SH2 domain T42A 0.786 | SHP2 N-SH2 domain T52S 0.965 | [2] 0.703

IVINPNAYDNLAIYK [PEAK1_HUMAN_635]
inactive: SHP2 C-SH2 domain E139D 1.01 | [1] 1.29 | SHP2 N-SH2 domain L43F 1.19 | SHP2 N-SH2 domain T42A 0.896 | SHP2 N-SH2 domain T52S 0.928 | [2] 0.956

FLSEETPYSYPTGNH [PAXI_HUMAN_31]
inactive: SHP2 C-SH2 domain E139D 1.04 | [1] 0.571 | SHP2 N-SH2 domain L43F 0.673 | SHP2 N-SH2 domain T42A 0.537 | SHP2 N-SH2 domain T52S 0.577 | [2] 0.671

NEDADENYFINEEDE [P55G_HUMAN_341]
inactive: SHP2 C-SH2 domain E139D 1.78 | [1] 1.23 | SHP2 N-SH2 domain L43F 1.45 | SHP2 N-SH2 domain T42A 1.91 | SHP2 N-SH2 domain T52S 2.07 | [2] 2.36

DVYSTDYYRVGGHTM [NTRK2_HUMAN_707]
inactive: SHP2 C-SH2 domain E139D 0.698 | [1] 0.681 | SHP2 N-SH2 domain L43F 0.47 | SHP2 N-SH2 domain T42A 0.556 | SHP2 N-SH2 domain T52S 0.623 | [2] 0.629

SFDLTTPYRIFSFSA [ARAP1_HUMAN_504]
inactive: SHP2 C-SH2 domain E139D 0.847 | [1] 0.709 | SHP2 N-SH2 domain L43F 0.901 | SHP2 N-SH2 domain T42A 0.664 | SHP2 N-SH2 domain T52S 0.934 | [2] 1

ARVITNQYNNPAGLA [PDLI1_HUMAN_144_YA]
inactive: SHP2 C-SH2 domain E139D 0.59 | [1] 0.541 | SHP2 N-SH2 domain L43F 0.657 | SHP2 N-SH2 domain T42A 0.759 | SHP2 N-SH2 domain T52S 0.904 | [2] 0.525

ARVITNQYNNPAGLY [PDLI1_HUMAN_144]
inactive: SHP2 C-SH2 domain E139D 0.846 | [1] 0.733 | SHP2 N-SH2 domain L43F 0.731 | SHP2 N-SH2 domain T42A 0.797 | SHP2 N-SH2 domain T52S 0.817 | [2] 0.758

DVYSTDYYRLFNPSG [NTRK3_HUMAN_710]
inactive: SHP2 C-SH2 domain E139D 0.627 | [1] 0.643 | SHP2 N-SH2 domain L43F 0.72 | SHP2 N-SH2 domain T42A 0.448 | SHP2 N-SH2 domain T52S 0.572 | [2] 0.426

SKLHDSLYNEDCTFQ [APC1_HUMAN_571]
inactive: SHP2 C-SH2 domain E139D 1.01 | [1] 0.831 | SHP2 N-SH2 domain L43F 0.88 | SHP2 N-SH2 domain T42A 0.974 | SHP2 N-SH2 domain T52S 0.8 | [2] 0.822

EDDDANSYENVLICK [NTAL_HUMAN_136]
inactive: SHP2 C-SH2 domain E139D 1.1 | [1] 0.827 | SHP2 N-SH2 domain L43F 1.14 | SHP2 N-SH2 domain T42A 1.02 | SHP2 N-SH2 domain T52S 0.977 | [2] 1.16

ADESTRSYVILSFEN [PGFRA_HUMAN_720]
active: SHP2 N-SH2 domain L43F 7.53 | SHP2 N-SH2 domain T42A 7 | SHP2 N-SH2 domain T52S 4.71
inactive: SHP2 C-SH2 domain E139D 1.31 | [1] 1.4 | [2] 2.5

GYRDSGYYWEVPPSE [ARAF_HUMAN_302]
inactive: SHP2 C-SH2 domain E139D 0.658 | [1] 0.563 | SHP2 N-SH2 domain L43F 0.592 | SHP2 N-SH2 domain T42A 0.693 | SHP2 N-SH2 domain T52S 0.668 | [2] 0.667

KLLCDKYYMASPDLE [PDK2_HUMAN_216]
inactive: SHP2 C-SH2 domain E139D 1.34 | [1] 1.34 | SHP2 N-SH2 domain L43F 0.815 | SHP2 N-SH2 domain T42A 0.968 | SHP2 N-SH2 domain T52S 1.32 | [2] 1.42

TDEAQFIYILGNRSK [ANXA6_HUMAN_201]
inactive: SHP2 C-SH2 domain E139D 1.4 | [1] 1.27 | SHP2 N-SH2 domain L43F 1.19 | SHP2 N-SH2 domain T42A 0.811 | SHP2 N-SH2 domain T52S 1.21 | [2] 1.64

SREYDQLYEEYTRTS [P85B_HUMAN_464]
inactive: SHP2 C-SH2 domain E139D 0.799 | [1] 0.636 | SHP2 N-SH2 domain L43F 0.524 | SHP2 N-SH2 domain T42A 0.762 | SHP2 N-SH2 domain T52S 0.594 | [2] 0.668

AATTEFLYNLASSEG [PFKAL_HUMAN_640_YA]
inactive: SHP2 C-SH2 domain E139D 0.734 | [1] 0.572 | SHP2 N-SH2 domain L43F 0.704 | SHP2 N-SH2 domain T42A 0.86 | SHP2 N-SH2 domain T52S 0.774 | [2] 0.737

SREYDRLYEEYTRTS [P85A_HUMAN_467]
inactive: SHP2 C-SH2 domain E139D 0.904 | [1] 0.705 | SHP2 N-SH2 domain L43F 0.661 | SHP2 N-SH2 domain T42A 0.59 | SHP2 N-SH2 domain T52S 0.722 | [2] 0.773

ESSQRGCYACSVVVD [P85B_HUMAN_655]
inactive: SHP2 C-SH2 domain E139D 0.72 | [1] 0.633 | SHP2 N-SH2 domain L43F 0.729 | SHP2 N-SH2 domain T42A 0.636 | SHP2 N-SH2 domain T52S 0.701 | [2] 0.647

KSLVGTPYWMAPEVI [PAK6_HUMAN_566]
inactive: SHP2 C-SH2 domain E139D 1.02 | [1] 0.823 | SHP2 N-SH2 domain L43F 0.742 | SHP2 N-SH2 domain T42A 0.826 | SHP2 N-SH2 domain T52S 0.846 | [2] 0.837

DEDCAGNYDNLLSQF [PDPK1_HUMAN_376_YA]
inactive: SHP2 C-SH2 domain E139D 0.83 | [1] 0.765 | SHP2 N-SH2 domain L43F 0.737 | SHP2 N-SH2 domain T42A 0.729 | SHP2 N-SH2 domain T52S 0.991 | [2] 0.726

VESLESLYFTPIPAR [NUMA1_HUMAN_1774]
inactive: SHP2 C-SH2 domain E139D 1.25 | [1] 1.11 | SHP2 N-SH2 domain L43F 0.973 | SHP2 N-SH2 domain T42A 0.922 | SHP2 N-SH2 domain T52S 1.19 | [2] 1.11

DAKKEGPYDVVVLPG [PARK7_HUMAN_67]
inactive: SHP2 C-SH2 domain E139D 0.63 | [1] 0.495 | SHP2 N-SH2 domain L43F 0.775 | SHP2 N-SH2 domain T42A 0.6 | SHP2 N-SH2 domain T52S 0.603 | [2] 0.793

DDFRQPRYSSGGNFE [OCLN_HUMAN_368]
inactive: SHP2 C-SH2 domain E139D 0.649 | [1] 0.498 | SHP2 N-SH2 domain L43F 0.443 | SHP2 N-SH2 domain T42A 0.528 | SHP2 N-SH2 domain T52S 0.612 | [2] 0.528

AKMLCEQYYLVAPEL [PDK3_HUMAN_211]
inactive: SHP2 C-SH2 domain E139D 1.68 | [1] 1.39 | SHP2 N-SH2 domain L43F 1.47 | SHP2 N-SH2 domain T42A 1.57 | SHP2 N-SH2 domain T52S 1.61 | [2] 1.78

SFTGSRTYSLVGQAW [NTAL_HUMAN_58]
inactive: SHP2 C-SH2 domain E139D 1.08 | [1] 2.2 | SHP2 N-SH2 domain L43F 0.739 | SHP2 N-SH2 domain T42A 0.888 | SHP2 N-SH2 domain T52S 0.937 | [2] 0.898
